The text below walks through data of publication PMC4336329 (PLoS ONE, 2015).

About 14,000 (4.5%) of roughly 310,000 compounds showed an effect of 50% or more. Effects have a minus sign here. This is one part of the list.
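Note: peak tail current of the secondary pulse compared with the same well before compound.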

Chain of human ether-à-go-go-related gene (hERG) potassium channel (Q12809 whole entry, looked up): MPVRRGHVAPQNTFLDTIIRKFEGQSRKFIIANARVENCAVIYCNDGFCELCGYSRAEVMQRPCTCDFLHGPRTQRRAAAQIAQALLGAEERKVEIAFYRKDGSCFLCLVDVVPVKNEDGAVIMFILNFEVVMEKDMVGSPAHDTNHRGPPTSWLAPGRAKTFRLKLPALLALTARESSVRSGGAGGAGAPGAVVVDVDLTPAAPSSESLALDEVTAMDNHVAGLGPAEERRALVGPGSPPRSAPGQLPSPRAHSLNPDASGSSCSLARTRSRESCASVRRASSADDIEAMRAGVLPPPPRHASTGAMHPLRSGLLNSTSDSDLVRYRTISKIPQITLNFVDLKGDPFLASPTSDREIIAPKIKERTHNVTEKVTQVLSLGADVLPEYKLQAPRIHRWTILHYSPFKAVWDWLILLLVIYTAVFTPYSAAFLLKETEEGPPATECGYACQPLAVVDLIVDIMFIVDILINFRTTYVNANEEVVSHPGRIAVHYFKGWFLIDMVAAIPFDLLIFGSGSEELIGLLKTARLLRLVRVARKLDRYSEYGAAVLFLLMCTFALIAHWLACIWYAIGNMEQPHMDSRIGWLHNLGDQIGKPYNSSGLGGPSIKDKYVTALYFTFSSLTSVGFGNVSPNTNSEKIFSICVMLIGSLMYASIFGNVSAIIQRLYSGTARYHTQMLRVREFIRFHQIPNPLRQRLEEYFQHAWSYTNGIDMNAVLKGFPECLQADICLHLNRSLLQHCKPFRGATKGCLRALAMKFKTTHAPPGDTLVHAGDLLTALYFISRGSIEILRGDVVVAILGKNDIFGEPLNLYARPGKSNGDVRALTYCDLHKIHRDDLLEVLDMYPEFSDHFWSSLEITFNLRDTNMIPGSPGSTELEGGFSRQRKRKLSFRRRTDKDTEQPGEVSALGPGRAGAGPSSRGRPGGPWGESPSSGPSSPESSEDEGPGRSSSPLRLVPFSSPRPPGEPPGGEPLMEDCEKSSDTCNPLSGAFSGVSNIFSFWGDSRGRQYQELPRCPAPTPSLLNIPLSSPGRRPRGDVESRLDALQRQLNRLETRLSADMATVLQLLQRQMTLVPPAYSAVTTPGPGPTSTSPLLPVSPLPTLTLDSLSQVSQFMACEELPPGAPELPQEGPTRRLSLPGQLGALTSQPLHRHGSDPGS

The test addresses human ether-à-go-go-related gene (hERG) potassium channel (human, UniProt Q12809). Nature of the test: primary screen, population patch clamp on CHO cells stably expressing hERG.
Turning to `CCOc1ccc(-c2cnc3ccccc3n2)cc1`, the “hERG current change (%, negative = inhibition) at 10uM” value was 14.3%. Take `COC(=O)c1c(NC(=O)COC(=O)CCc2ccc(S(=O)(=O)N3CCOCC3)cc2)sc2c1CCC2`: the “hERG current change (%, negative = inhibition) at 10uM” value worked out at 1.26%. Next, `CCOC(=O)C1CCN(C(=O)COC(=O)CNC(=O)c2sc3ccccc3c2Cl)CC1`: -21.6%.

With `CCC1CCCCN1CCCNC(=O)Cn1c2ccccc2c2nc(=O)cc(C)n21` (stereo not drawn), the “hERG current change (%, negative = inhibition) at 10uM” value was found to be 10.5%. The figure for `COc1ccccc1C1CCN(Cc2ccccc2)CC1` is -34.5%; for `CC(=O)c1cccc(OCC(O)CN2CC=C(c3ccccc3)CC2)c1.O=C(O)C(=O)O` (stereo not drawn) it is -68.9%. On to `COCCCn1c(=O)/c(=C\c2ccccc2OC(F)F)s/c1=C(/C#N)C(=O)N1CCOCC1`, for which the “hERG current change (%, negative = inhibition) at 10uM” value is recorded as -17.1%. Next, `COc1cc2c(cc1NC(=O)c1cccc(F)c1)CCCC2`: 4.09%; `COc1ccc(-c2c(C)[nH]n3c(=O)c(Cc4ccccc4)c(C)nc23)cc1OC`: 0.0435%.

As to `O=C(Nc1ccccc1)/C(=C/c1cccnc1)NC(=O)c1ccccc1`, the “hERG current change (%, negative = inhibition) at 10uM” value is given as 2.08%.

As for `Cc1cc2nsnc2c(S(=O)(=O)NCC(=O)O)c1C`, the “hERG current change (%, negative = inhibition) at 10uM” value is given as -4.2%. As for `COc1ccc2cc(C#N)c(Cl)nc2c1`, the “hERG current change (%, negative = inhibition) at 10uM” value was 20.2%. Turning to `O=C(Nc1nnc(Cc2ccc(Cl)cc2)s1)c1cccs1`, the “hERG current change (%, negative = inhibition) at 10uM” value was -4.72%. For `O=C(Nc1ccc(Cl)cc1)Nn1cnc2ccccc2c1=O`, the “hERG current change (%, negative = inhibition) at 10uM” value amounted to 7.47%. Next, `C/C(CC(=O)Nc1cccc(C(F)(F)F)c1)=N\NC(=O)c1ccncc1`: 14.3%; `N#Cc1nc(N2CCOCC2)nc(N2CCOCC2)n1`: -38.6%.

With `COc1cc(/C=N/NC(=O)Cc2ccccc2)cc(OC)c1OC`, the “hERG current change (%, negative = inhibition) at 10uM” value is 8.74%. Next, `O=C1OCCN1C(=O)[C@H]1[C@H](c2ccc(F)cc2)C(c2ccc(F)cc2)=NN1c1ccc(Br)cc1`: 13%. The figure for `CC(=O)N1CCN(CC(=O)Nc2ccccc2Sc2ccccc2)CC1` is -59.5%. Take `Cc1ccccc1CN(c1ccc(C(=O)N2CCN(C)CC2)cc1)S(C)(=O)=O`: the “hERG current change (%, negative = inhibition) at 10uM” value is recorded as 18.9%. Next, `COc1ccc(C(CC(=O)O)NC(=O)COc2ccccc2)cc1` (stereo not drawn): 7.42%; `Cc1ccc(C(=O)Nc2cccc(C(=O)NC3CCCC3)c2)cc1`: 10.6%; `Cc1cccc(CN2CCN(Cc3ccc(Cl)cc3)CC2)c1.O=C(O)C(=O)O`: -40%. Next, `CCN1CCN(C(=O)C2CCCN(S(=O)(=O)c3cccc4nsnc34)C2)CC1` (stereo not drawn): -10.1%; `CCOC(=O)C1=CN(C)C=C(C(=O)OCC)C1c1ccsc1`: -28.5%; `C=CCNc1nc(S(=O)Cc2ccc(C)cc2)nc2c1CCCC2` (stereo not drawn): -17.1%. The figure for `CC(C)CSc1nnc(N)s1` is 11.5%. Take `Nc1nnnn1/N=C/C(Br)=C/c1ccccc1`: the “hERG current change (%, negative = inhibition) at 10uM” value is -13.8%. The figure for `NC(=O)c1cccnc1Nc1cccc(F)c1` is -4.36%; for `CC1Sc2ccc(S(=O)(=O)CCC(=O)N3CCN(c4ccccc4)CC3)cc2NC1=O` (stereo not drawn) it is 10.9%. Next, `COCCNC(=O)CCCn1c(=O)c2cc(OC)c(OC)cc2n(CC(=O)c2cccc(OC)c2)c1=O`: 4.37%; `O=C(CSc1cccc[n+]1[O-])CSc1cccc[n+]1[O-]`: 7.05%; `Cc1cccc2c3nc4ccccc4nc3n(C)c12`: 15%.

For `Cc1csc(NC(=O)C(Cc2ccccc2)n2cccc2)n1` (stereo not drawn), the “hERG current change (%, negative = inhibition) at 10uM” value is listed as -1.9%.

Regarding `Cc1c(C(=O)NCC2CCCO2)oc2ccc(Br)cc12` (stereo not drawn), the “hERG current change (%, negative = inhibition) at 10uM” value was -14%. On to `CCOC(=O)c1c(C)c(C(=O)N2CCCCCC2)c(C)n1CC`, for which the “hERG current change (%, negative = inhibition) at 10uM” value came to 9.15%. Turning to `CC1(C)CC(=O)C(C=NCCc2ccccn2)=C(O)C1`, the “hERG current change (%, negative = inhibition) at 10uM” value was 8.58%. The figure for `CCCCCn1c(=O)[nH]c2cc(C(=O)NCCN(CC)CC)ccc2c1=O` is -19.9%. Next, `CCCC(=O)Nc1nnc(SCC(=O)Nc2ccc3c(c2)OCO3)s1`: 3.08%; `C/C(=N\NC(=S)Nc1cc(S(=O)(=O)N2CCOCC2)ccc1Cl)c1ccc(N2CCOCC2)cc1`: 6.22%. The figure for `CC(=O)N1CCc2cc(C(=O)CN3CCCN(Cc4ccc(F)cc4)C3)ccc21` is 1.87%.

On to `CCN1C(=O)[C@H]2[C@@H](c3ccc(SC4CCCCC4)c(OC)c3)N3CCCC[C@@]3(C(=O)OC)[C@H]2C1=O.O=C(O)C(F)(F)F`, for which the “hERG current change (%, negative = inhibition) at 10uM” value was 13%. Consider `Cc1ccc(S(=O)(=O)N2CCC(C(=O)OCc3c(C)noc3C)CC2)cc1C`, for which the “hERG current change (%, negative = inhibition) at 10uM” value is listed as -15.8%. Next, `O=C(Nc1ccc2c(c1)OCO2)C(c1ccccc1)N1CCC2(CC1)OCCO2` (stereo not drawn): -0.953%; `CC(C)(C)NC(=O)CN(C(=O)c1csnn1)c1cccc2c1CCCC2`: -3.36%; `COCCNC(=O)c1ccccc1NC(=O)C1COc2ccccc2O1` (stereo not drawn): -1.17%. Next, `Cc1nc(C)c(C(=O)N(c2ccc(C)c(C)c2)C(C(=O)NCc2ccco2)c2ccccc2)s1` (stereo not drawn): -13.4%; `Cc1cc(C)c2c(CCl)cc(=O)oc2c1`: -1.06%; `CCCCCCCCC(=O)NNC(=O)c1c(O)c2ccccc2n(CCC)c1=O`: 19.1%. The figure for `CCc1ccc(/C=C2/SC(=S)N(CC(=O)Nc3nc4ccccc4s3)C2=O)cc1` is 14.4%; for `CCc1ccc(NC(=O)CS(=O)CC(=O)Nc2ccc(-n3cnnn3)c(C)c2)cc1` (stereo not drawn) it is 2.15%. With `c1ccc(-c2nnc(CN3CCN(c4ccccc4)CC3)o2)cc1`, the “hERG current change (%, negative = inhibition) at 10uM” value is recorded as -8.8%. Next, `COc1ccc(C(=O)c2ccc(CC#N)s2)cc1`: 14.2%; `CCOc1ccc2[nH]c(=O)c(CN(CCCO)C(C)=O)cc2c1`: 3.62%; `CCOC(=O)Cn1cncc1-c1ccc([N+](=O)[O-])cc1`: 3.34%.

Regarding `COc1ccc(C2(O)CCN(CC(=O)Nc3nccs3)CC2)c(OC)c1`, the “hERG current change (%, negative = inhibition) at 10uM” value is listed as -40.1%.

For the compound `C/C(=N/NC(=O)c1cc(Cl)ccc1O)C12CC3CC(CC(C3)C1)C2`, the “hERG current change (%, negative = inhibition) at 10uM” value is given as 5.8%.

As to `CNc1nc2[nH]c(=O)c3c(c2s1)OC(N)=C(C#N)C3c1cccc(F)c1` (stereo not drawn), the “hERG current change (%, negative = inhibition) at 10uM” value was found to be 11.1%. Regarding `COc1cccc(-c2cc3c(-n4cccc4)ncnc3o2)c1`, the “hERG current change (%, negative = inhibition) at 10uM” value was 4.32%. For the compound `COC(=O)c1ccccc1S(=O)(=O)N1CCC(c2nc3ccccc3o2)CC1`, the “hERG current change (%, negative = inhibition) at 10uM” value was -29.1%. Next, `O=C(CSc1nc2ccc(Cl)cc2[nH]1)NCCc1ccc(Cl)cc1`: -2.88%; `Cc1ccc(NC(=O)C(=O)NCCCN2CCOCC2)c(C)c1`: -8.87%. For the compound `CCOC(=O)C(C)Oc1ccc2c(CC)cc(=O)oc2c1C` (stereo not drawn), the “hERG current change (%, negative = inhibition) at 10uM” value is -12.6%. Next, `O=C(NCCc1cccnc1)c1cc(COc2ccc(F)cc2Cl)on1`: -7.87%; `CCc1cc(=O)oc2cc(OCC(=O)NCCCN3CCOCC3)c(Cl)cc12`: 4.59%; `Cc1ccnn1C(C)C(=O)O` (stereo not drawn): 26.3%. `Cc1cc(C)cc(N(C(=O)CNC(=O)c2ccco2)C(C(=O)NC2CCCC2)c2cccnc2)c1` (stereo not drawn): the “hERG current change (%, negative = inhibition) at 10uM” value is recorded as -6.29%. The figure for `O=C(CN1CCN(c2ccc(O)cc2)CC1)Nc1ccc(SC(F)F)cc1` is -74.7%; for `CCN(CC)C(=O)CCc1nnc(CCc2c[nH]c3ccccc23)o1` it is 6.93%.

As for `COc1ccc(S(=O)(=O)N(C)c2ccc(C(=O)NCc3ccco3)cc2)cc1`, the “hERG current change (%, negative = inhibition) at 10uM” value is given as -11.9%. Next, `CCOC(=O)Cc1ncccc1C(=O)Nc1ccc(Oc2ccccc2)cc1`: 5.86%; `Cc1ccc(C(=O)Oc2csc(=S)n2C(=O)c2ccc(C)cc2)cc1`: 19%.

As for `O=C1CS/C(=N\N=C\c2ccco2)N1c1ccccc1`, the “hERG current change (%, negative = inhibition) at 10uM” value is given as 9.29%.

For the compound `Nc1nc(-c2ccc3c(c2)CCO3)cs1`, the “hERG current change (%, negative = inhibition) at 10uM” value amounted to 11.4%.

As to `CSCCC(/C(O)=C(\C#N)c1nc2ccccc2[nH]1)N1C(=O)c2ccccc2C1=O` (stereo not drawn), the “hERG current change (%, negative = inhibition) at 10uM” value is -10.1%.

On to `COc1cc2c(C(=O)NC3CCCCCC3)cn(C)c(=O)c2cc1OC`, for which the “hERG current change (%, negative = inhibition) at 10uM” value came to 8.02%. As for `O=C1c2ccccc2C(O)N1Cc1cccs1` (stereo not drawn), the “hERG current change (%, negative = inhibition) at 10uM” value is on record as 7.7%. As for `O=S(=O)(NCCSc1nnc(-c2ccco2)n1-c1ccccc1)c1ccccc1`, the “hERG current change (%, negative = inhibition) at 10uM” value is -25.5%.

With `COc1ccc(C(=O)Nc2cc(C(=O)O)cc(C(=O)O)c2)cc1Cl`, the “hERG current change (%, negative = inhibition) at 10uM” value was 19.5%. Next, `O=C(CSc1nc2ccccc2c(=O)[nH]1)Nc1ccc(Br)cc1`: 9.32%. For `Cc1[nH]c2ccc(OC(=O)N3CCOCC3)cc2c1C(=O)OC(C)C`, the “hERG current change (%, negative = inhibition) at 10uM” value is recorded as -13%. Next, `CC(=O)Nc1ccc(NC(=O)Nc2ccc3c(c2)N(C)C(=O)CS3)cc1`: 18%; `COC(=O)CSc1n[nH]c(-c2ccncc2)n1`: 16.6%; `OCC#Cc1cnc2ccccc2c1`: 3.98%.

On to `Cc1cccc(C)c1NC(=O)CNC(=O)c1ccc2c(c1)OCCO2`, for which the “hERG current change (%, negative = inhibition) at 10uM” value is given as 14.7%. The figure for `O=C(O)c1ncc(Cl)c(Cl)c1Cl` is 2.37%; for `O=C1CC(Sc2ncccn2)C(=O)N1c1ccccc1` (stereo not drawn) it is 1.03%. Next, `CCOc1ccc(OCC)c(NC(=O)CN2CCN(c3cc(C)ccc3C)CC2)c1.Cl`: -9.35%; `COc1ccc(N2CC(C(=O)OCC(=O)Nc3cccc(C)c3)CC2=O)cc1` (stereo not drawn): -30.9%. With `CCc1ccc(C(=O)COC(=O)C(Cc2ccccc2)NC(=O)C2CCC(C)CC2)cc1` (stereo not drawn), the “hERG current change (%, negative = inhibition) at 10uM” value is reported as 0.334%.
